# From patent US20250277055A1 (SAMSUNG BIOLOGICS, published 2025)
# T1: VEGF (UniProt P15692-4 27-191)
# T1 sequence (looked up): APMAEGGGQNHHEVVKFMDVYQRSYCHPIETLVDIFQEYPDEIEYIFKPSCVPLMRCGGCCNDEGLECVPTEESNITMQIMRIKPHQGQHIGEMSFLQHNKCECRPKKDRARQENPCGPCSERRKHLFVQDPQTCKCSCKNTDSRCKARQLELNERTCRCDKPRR
# Molecular target: T1, VEGF
# Assay: cell-based or functional assay
binder,measurement,value
"Q-SBL9 (bispecific antibody, human IgG1, kappa) heavy 1: [letters of about 120 residues not shown]ASPREPQVYTLPPCREEMTKNQVSLSCAVKGFYPSDIAVEWESNGQPENNYKTTPPVLDSDGSFFLVSKLTVDKSRWQQGNVFSCSVMHEALHNHYTQKSLSLSPGKGGGGSASTKGPSVFPLAPSSKSTSGGTAALGCLVKDYFPEPVTVSWNSGALTSGVHTFPAVLQSSGLYSLSSVVTVPSSSLGTQTYICNVNHKPSNTKVDKKVEPKSSDKTHTCPPCPAPELLGGPSVFLFPPKPKDTLMISRTPEVTCVVVDVSHEDPEVKFNWYVDGVEVHNAKTKPREEQYNSTYRVVSVLTVLHQDWLNGKEYKCKVSNKALPAPIEKTISKAKGQPREPQVCTLPPSREEMTKNQVSLSCAVKGFYPSDIAVEWESNGQPENNYKTTPPVLDSDGSFFLVSKLTVDKSRWQQGNVFSCSVMHEALHNHYTQKSLSLSPGK light 1: [letters of about 100 residues not shown]RTPREPQVCTLPPSREEMTKNQVSLWCLVKGFYPSDIAVEWESNGQPENNYKTTPPVLDSDGSFFLYSKLTVDKSRWQQGNVFSCSVMHEALHNHYTQKSLSLSPGKGGGGSRTVAAPSVFIFPPSDEQLKSGTASVVCLLNNFYPREAKVQWKVDNALQSGNSQESVTEQDSKDSTYSLSSTLTLSKADYEKHKVYACEVTHQGLSSPVTKSFNRGES heavy 2: EVQLVESGGGLVQPGGSLRLSCAASGYTFTNYGMNWVRQAPGKGLEWVGWINTYTGEPTYAADFKRRFTFSLDTSKSTAYLQMNSLRAEDTAVYYCAKYPHYYGSSHWYFDVWGQGTLVTVSSASTKGPSVFPLAPSSKSTSGGTAALGCLVKDYFPEPVTVSWNSGALTSGVHTFPAVLQSSGLYSLSSVVTVPSSSLGTQTYICNVNHKPSNTKVDKKV[letters of human IgG1 Fc with changes not shown] light 2: DIQMTQSPSSLSASVGDRVTITCSASQDISNYLNWYQQKPGKAPKVLIYFTSSLHSGVPSRFSGSGSGTDFTLTISSLQPEDFATYYCQQYSTVPWTFGQGTKVEIKRTVAAPSVFIFPPSDEQLKSGTASVVCLLNNFYPREAKVQWKVDNALQSGNSQESVTEQDSKDSTYSLSSTLTLSKADYEKHKVYACEVTHQGLSSPVTKSFNRGEC",IC50 (nM) in HUVEC proliferation assay,5.48 nM
"Q-SBL2 (bispecific antibody, human IgG1, kappa) heavy 1: [letters of about 120 residues not shown]ASPREPQVCTLPPSREEMTKNQVSLSCAVKGFYPSDIAVEWESNGQPENNYKTTPPVLDSDGSFFLVSKLTVDKSRWQQGNVFSCSVMHEALHNHYTQKSLSLSPGKGGGGSASTKGPSVFPLAPSSKSTSGGTAALGCLVKDYFPEPVTVSWNSGALTSGVHTFPAVLQSSGLYSLSSVVTVPSSSLGTQTYICNVNHKPSNTKVDKKV[letters of human IgG1 Fc with changes not shown] light 1: [letters of about 100 residues not shown]RTPREPQVYTLPPCREEMTKNQVSLWCLVKGFYPSDIAVEWESNGQPENNYKTTPPVLDSDGSFFLYSKLTVDKSRWQQGNVFSCSVMHEALHNHYTQKSLSLSPGKGGGGSRTVAAPSVFIFPPSDEQLKSGTASVVCLLNNFYPREAKVQWKVDNALQSGNSQESVTEQDSKDSTYSLSSTLTLSKADYEKHKVYACEVTHQGLSSPVTKSFNRGES heavy 2: EVQLVESGGGLVQPGGSLRLSCAASGYTFTNYGMNWVRQAPGKGLEWVGWINTYTGEPTYAADFKRRFTFSLDTSKSTAYLQMNSLRAEDTAVYYCAKYPHYYGSSHWYFDVWGQGTLVTVSSASTKGPSVFPLAPSSKSTSGGTAALGCLVKDYFPEPVTVSWNSGALTSGVHTFPAVLQSSGLYSLSSVVTVPSSSLGTQTYICNVNHKPSNTKVDKKV[letters of human IgG1 Fc with changes not shown] light 2: DIQMTQSPSSLSASVGDRVTITCSASQDISNYLNWYQQKPGKAPKVLIYFTSSLHSGVPSRFSGSGSGTDFTLTISSLQPEDFATYYCQQYSTVPWTFGQGTKVEIKRTVAAPSVFIFPPSDEQLKSGTASVVCLLNNFYPREAKVQWKVDNALQSGNSQESVTEQDSKDSTYSLSSTLTLSKADYEKHKVYACEVTHQGLSSPVTKSFNRGEC",IC50 (nM) in HUVEC proliferation assay,5.01 nM
"R-SBL2 (bispecific antibody, human IgG1, kappa) heavy 1: [letters of about 120 residues not shown]ASPREPQVCTLPPSREEMTKNQVSLSCAVKGFYPSDIAVEWESNGQPENNYKTTPPVLDSDGSFFLVSKLTVDKSRWQQGNVFSCSVMHEALHNHYTQKSLSLSPGKGGGGSASTKGPSVFPLAPSSRSTSESTAALGCLVKDYFPEPVTVSWNSGALTSGVHTFPAVLQSSGLYSLSSVVTVPSSSLGTKTYTCNVDHKPSNTKVDKRV[letters of human IgG1 Fc with changes not shown] light 1: [letters of about 100 residues not shown]RTPREPQVYTLPPCREEMTKNQVSLWCLVKGFYPSDIAVEWESNGQPENNYKTTPPVLDSDGSFFLYSKLTVDKSRWQQGNVFSCSVMHEALHNHYTQKSLSLSPGKGGGGSRTVAAPSVFIFPPSDEQLKSGTASVVCLLNNFYPREAKVQWKVDNALQSGNSQESVTEQDSKDSTYSLSSTLTLSKADYEKHKVYACEVTHQGLSSPVTKSFNRGES heavy 2: EVQLVESGGGLVQPGGSLRLSCAASGYTFTNYGMNWVRQAPGKGLEWVGWINTYTGEPTYAADFKRRFTFSLDTSKSTAYLQMNSLRAEDTAVYYCAKYPHYYGSSHWYFDVWGQGTLVTVSSASTKGPSVFPLAPSSKSTSGGTAALGCLVKDYFPEPVTVSWNSGALTSGVHTFPAVLQSSGLYSLSSVVTVPSSSLGTQTYICNVNHKPSNTKVDKKV[letters of human IgG1 Fc with changes not shown] light 2: DIQMTQSPSSLSASVGDRVTITCSASQDISNYLNWYQQKPGKAPKVLIYFTSSLHSGVPSRFSGSGSGTDFTLTISSLQPEDFATYYCQQYSTVPWTFGQGTKVEIKRTVAAPSVFIFPPSDEQLKSGTASVVCLLNNFYPREAKVQWKVDNALQSGNSQESVTEQDSKDSTYSLSSTLTLSKADYEKHKVYACEVTHQGLSSPVTKSFNRGEC",IC50 (nM) in HUVEC proliferation assay,5.03 nM
"Q-SBL3 (bispecific antibody, human IgG1, kappa) heavy 1: [letters of about 120 residues not shown]ASPREPQVCTLPPSREEMTKNQVSLSCAVKGFYPSDIAVEWESNGQPENNYKTTPPVLDSDGSFFLVSKLTVDKSRWQQGNVFSCSVMHEALHNHYTQKSLSLSPGKGGGGSGGGGSGGGGSASTKGPSVFPLAPSSKSTSGGTAALGCLVKDYFPEPVTVSWNSGALTSGVHTFPAVLQSSGLYSLSSVVTVPSSSLGTQTYICNVNHKPSNTKVDKKV[letters of human IgG1 Fc with changes not shown] light 1: [letters of about 100 residues not shown]RTPREPQVYTLPPCREEMTKNQVSLWCLVKGFYPSDIAVEWESNGQPENNYKTTPPVLDSDGSFFLYSKLTVDKSRWQQGNVFSCSVMHEALHNHYTQKSLSLSPGKGGGGSGGGGSGGGGSRTVAAPSVFIFPPSDEQLKSGTASVVCLLNNFYPREAKVQWKVDNALQSGNSQESVTEQDSKDSTYSLSSTLTLSKADYEKHKVYACEVTHQGLSSPVTKSFNRGES heavy 2: EVQLVESGGGLVQPGGSLRLSCAASGYTFTNYGMNWVRQAPGKGLEWVGWINTYTGEPTYAADFKRRFTFSLDTSKSTAYLQMNSLRAEDTAVYYCAKYPHYYGSSHWYFDVWGQGTLVTVSSASTKGPSVFPLAPSSKSTSGGTAALGCLVKDYFPEPVTVSWNSGALTSGVHTFPAVLQSSGLYSLSSVVTVPSSSLGTQTYICNVNHKPSNTKVDKKV[letters of human IgG1 Fc with changes not shown] light 2: DIQMTQSPSSLSASVGDRVTITCSASQDISNYLNWYQQKPGKAPKVLIYFTSSLHSGVPSRFSGSGSGTDFTLTISSLQPEDFATYYCQQYSTVPWTFGQGTKVEIKRTVAAPSVFIFPPSDEQLKSGTASVVCLLNNFYPREAKVQWKVDNALQSGNSQESVTEQDSKDSTYSLSSTLTLSKADYEKHKVYACEVTHQGLSSPVTKSFNRGEC",IC50 (nM) in HUVEC proliferation assay,3.47 nM
"R-SBL3 (bispecific antibody, human IgG1, kappa) heavy 1: [letters of about 120 residues not shown]ASPREPQVCTLPPSREEMTKNQVSLSCAVKGFYPSDIAVEWESNGQPENNYKTTPPVLDSDGSFFLVSKLTVDKSRWQQGNVFSCSVMHEALHNHYTQKSLSLSPGKGGGGSGGGGSGGGGSASTKGPSVFPLAPSSRSTSESTAALGCLVKDYFPEPVTVSWNSGALTSGVHTFPAVLQSSGLYSLSSVVTVPSSSLGTKTYTCNVDHKPSNTKVDKRV[letters of human IgG1 Fc with changes not shown] light 1: [letters of about 100 residues not shown]RTPREPQVYTLPPCREEMTKNQVSLWCLVKGFYPSDIAVEWESNGQPENNYKTTPPVLDSDGSFFLYSKLTVDKSRWQQGNVFSCSVMHEALHNHYTQKSLSLSPGKGGGGSGGGGSGGGGSRTVAAPSVFIFPPSDEQLKSGTASVVCLLNNFYPREAKVQWKVDNALQSGNSQESVTEQDSKDSTYSLSSTLTLSKADYEKHKVYACEVTHQGLSSPVTKSFNRGES heavy 2: EVQLVESGGGLVQPGGSLRLSCAASGYTFTNYGMNWVRQAPGKGLEWVGWINTYTGEPTYAADFKRRFTFSLDTSKSTAYLQMNSLRAEDTAVYYCAKYPHYYGSSHWYFDVWGQGTLVTVSSASTKGPSVFPLAPSSKSTSGGTAALGCLVKDYFPEPVTVSWNSGALTSGVHTFPAVLQSSGLYSLSSVVTVPSSSLGTQTYICNVNHKPSNTKVDKKV[letters of human IgG1 Fc with changes not shown] light 2: DIQMTQSPSSLSASVGDRVTITCSASQDISNYLNWYQQKPGKAPKVLIYFTSSLHSGVPSRFSGSGSGTDFTLTISSLQPEDFATYYCQQYSTVPWTFGQGTKVEIKRTVAAPSVFIFPPSDEQLKSGTASVVCLLNNFYPREAKVQWKVDNALQSGNSQESVTEQDSKDSTYSLSSTLTLSKADYEKHKVYACEVTHQGLSSPVTKSFNRGEC",IC50 (nM) in HUVEC proliferation assay,7.77 nM
